From paper PMC4336329 (PLoS ONE, 2015)
The whole screen tested about 310,000 compounds, of which about 14,000 (4.5%) showed an effect of 50% or more. Effects have a minus sign here. The list shows a part of the results.

Biological target: human ether-à-go-go-related gene (hERG) potassium channel (human, UniProt Q12809)
Test: primary screen, population patch clamp on CHO cells stably expressing hERG
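Also: peak tail current of the secondary pulse compared with the same well before compound.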

Sequence of human ether-à-go-go-related gene (hERG) potassium channel (Q12809 whole entry, looked up): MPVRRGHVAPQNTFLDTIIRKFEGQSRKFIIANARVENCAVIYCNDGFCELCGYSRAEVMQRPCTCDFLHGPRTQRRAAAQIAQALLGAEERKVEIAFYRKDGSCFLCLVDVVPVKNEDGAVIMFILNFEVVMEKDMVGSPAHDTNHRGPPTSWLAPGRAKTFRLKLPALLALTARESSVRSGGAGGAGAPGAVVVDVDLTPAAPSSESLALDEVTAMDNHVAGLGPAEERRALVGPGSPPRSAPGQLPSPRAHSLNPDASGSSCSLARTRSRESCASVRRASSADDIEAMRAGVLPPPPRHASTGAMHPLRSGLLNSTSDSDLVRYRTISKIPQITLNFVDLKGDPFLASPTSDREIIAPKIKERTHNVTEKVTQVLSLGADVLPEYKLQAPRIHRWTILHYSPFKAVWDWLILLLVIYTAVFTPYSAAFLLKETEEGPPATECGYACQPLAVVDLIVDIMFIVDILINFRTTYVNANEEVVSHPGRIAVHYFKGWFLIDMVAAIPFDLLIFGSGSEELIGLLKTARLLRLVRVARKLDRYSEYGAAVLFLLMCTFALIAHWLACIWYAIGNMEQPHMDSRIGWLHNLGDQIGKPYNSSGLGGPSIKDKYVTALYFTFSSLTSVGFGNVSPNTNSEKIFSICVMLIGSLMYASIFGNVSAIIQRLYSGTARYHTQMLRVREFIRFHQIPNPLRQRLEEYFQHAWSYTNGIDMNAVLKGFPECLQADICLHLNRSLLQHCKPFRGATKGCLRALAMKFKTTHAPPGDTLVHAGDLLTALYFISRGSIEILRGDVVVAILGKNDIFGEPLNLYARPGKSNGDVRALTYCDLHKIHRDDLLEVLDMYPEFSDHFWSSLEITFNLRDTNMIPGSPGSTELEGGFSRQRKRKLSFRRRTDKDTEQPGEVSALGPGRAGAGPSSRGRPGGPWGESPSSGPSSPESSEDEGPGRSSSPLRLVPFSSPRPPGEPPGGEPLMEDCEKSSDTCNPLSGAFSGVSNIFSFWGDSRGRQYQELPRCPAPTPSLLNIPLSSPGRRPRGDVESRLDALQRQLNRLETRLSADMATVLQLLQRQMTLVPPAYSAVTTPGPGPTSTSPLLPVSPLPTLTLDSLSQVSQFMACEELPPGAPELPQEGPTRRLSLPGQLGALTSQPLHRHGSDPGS

Row | Structure (SMILES) | hERG current change (%, negative = inhibition) at 10uM [%]
1 | Cc1ccc(C(=O)NC(=S)NCc2cccnc2)c(C)c1 | 4.09
2 | CCc1c(C(=O)NCc2ccc3c(c2)OCO3)[nH]c(C)c1C(C)=O | -6.95
3 | COc1ccc(-c2nn(-c3ccccc3)cc2CN2CCCO2)c(F)c1 | 3.95
4 | Cc1oc(/N=C/c2ccccc2)c(C#N)c1C | 28.2
5 | Cc1noc(C)c1C(=O)NCCC1=CCCCC1 | -3.97
6 | Cc1nnnn1/C(=C\c1ccccc1)C(=O)OCC(=O)Nc1cccc(S(=O)(=O)N(C)C)c1 | -26.3
7 | COc1cccc(CNC(=O)CSc2cc(=O)n(C)c3ccccc23)c1 | 2.52
8 | CC(=O)c1oc2ccccc2c1NC(=O)CN1CCCCC1.Cl | 7.19
9 | Cc1ccc(CN2CC34C=CC(O3)C(C(=O)NCc3ccc5c(c3)OCO5)C4C2=O)cc1 (stereo not drawn) | -31.6
10 | CCn1c(SCC(=O)NNC(=O)c2ccc(OC)cc2)nnc1-c1ccco1 | 19.5
11 | CCCCCC(=O)Nc1c(-c2cccs2)c(=O)c2ccccc2n1C | -12
12 | COCCCN1C(=O)C(=O)/C(=C(/O)c2ccc(OC(C)C)cc2)C1c1ccc(O)c(OC)c1 (stereo not drawn) | 3.66
13 | NC(=O)c1nsc(C(=O)N(Cc2cccnc2)C(C(=O)NCc2ccccc2)c2ccc(O)cc2)c1N (stereo not drawn) | 10.3
14 | Cn1c(=O)c(C(=O)COC(=O)c2cc(C3CC3)nc3ccccc23)c(N)n(Cc2ccccc2)c1=O | 13.8
15 | Cc1cc(NS(=O)(=O)c2ccc(NC(=O)CSc3nc4ncc(Br)cc4[nH]3)cc2)nc(C)n1 | 20.8
16 | CC(=O)Nc1ccc(NC(=S)NC(=O)/C=C/c2ccccc2)cc1 | 9.8
17 | CC1CCC(NC(=O)c2ccc(CS(=O)(=O)Cc3ccccc3F)o2)CC1 (stereo not drawn) | -36.5
18 | O=C(C1=C[C@H](c2csc3ccccc23)C[C@H](OCc2ccc(CO)cc2)O1)N1CCCCCCC1 | -15.1
19 | COc1cc(NC(=O)CSc2nnc(NC(C)C)s2)cc(OC)c1OC | 15
20 | CCCc1nc(C(C)(C)O)c(C(=O)O)n1Cc1ccc(-c2ccccc2-c2nn[nH]n2)cc1 | 2.56
21 | CN1CCN(c2ccc(NC(=O)c3cccs3)cc2)CC1 | 18
22 | Cc1cc(C)cc(NC(=O)CSc2nnc(NC(=O)C3CC3)s2)c1 | 14.5

Row | Structure (SMILES) | hERG current change (%, negative = inhibition) at 10uM [%]
23 | O=C(Nc1cc(S(=O)(=O)N2CCOCC2)ccc1N1CCOCC1)c1cnccn1 | -42.7
24 | O=c1[nH]c(=O)c2nc3c4ccccc4c4ccccc4c3nc2[nH]1 | 4.75
25 | COc1ccc(CCn2c(SCCN3CCCCC3)nc3ccccc3c2=O)cc1OC | -53.3
26 | O=C(COC(=O)Cc1ccc(F)cc1)NC1CCCCC1 | 12.2
27 | CN(CCCC(=O)NCc1ccccc1)S(=O)(=O)c1ccc([N+](=O)[O-])cc1 | -65.6
28 | CCOc1ccc(CCNC(=O)c2cc(-c3ccccc3)c(N3CCOCC3)s2)cc1 | 0.333
29 | CC1(C)Oc2cc(N)c([N+](=O)[O-])cc2O1 | 9.56
30 | CCC1CCCCN1Cc1nc2c(c(=O)n(C)c(=O)n2C)n1Cc1ccccc1 (stereo not drawn) | -36.6
31 | CCOC(=O)c1c(S(=O)(=O)N2CCCC(C(=O)Nc3cccc(C)n3)C2)c(C)n(C)c1C (stereo not drawn) | -24.4
32 | CC1Nc2ccc(C(=O)NC3CCCCC3)cc2NC1=O (stereo not drawn) | 25.7
33 | C/C(=N\N1CCCCCC1)c1c(O)n(-c2ccc(C)cc2)c(=O)[nH]c1=O | 7.88
34 | CCOc1ccc(C(C)=O)cc1CSC(=N)N.Cl | 16.2
35 | Cc1ccccc1CNC(=O)CN(c1cccc([N+](=O)[O-])c1)S(C)(=O)=O | 6.08
36 | CCOc1ccccc1NC(=O)c1cc(S(=O)(=O)N2CCOCC2)ccc1C | -7.75
37 | CCN1CCN(C(CNS(=O)(=O)c2ccc(F)cc2)c2cccnc2)CC1 (stereo not drawn) | -20.5
38 | CCC(C)NC(=O)C1CC(c2cccc(OC)c2)=NO1 (stereo not drawn) | 8.15
39 | CCn1c(=O)cc(SCC(=O)NCCC2=CCCCC2)c2ccccc21 | -6.46
40 | COc1ccc(CNCc2cccc3ccccc23)cc1.O=C(O)C(=O)O | -47.1
41 | COC(=O)c1onc(-c2c(C)cc(C)cc2C)c1C(=O)OC | 11.8
42 | O=c1c2cc(NC(=S)N3CCC(N4CCCCC4)CC3)ccc2nc2n1CCCCC2 | -3.94
43 | COc1cccc(NC(=O)CSc2nnc(CN3CCOCC3)n2C)c1 | -6.64
44 | C=CCn1c(Oc2ccccc2)nc2c1c(=O)n(C)c(=O)n2C | 5

Row | Structure (SMILES) | hERG current change (%, negative = inhibition) at 10uM [%]
45 | Nc1c(C(=O)O)sc2nc(-c3ccccc3)c3c(c12)CCCC3 | 11.6
46 | Cn1c(=O)c2c(nc(NC3CCCC3)n2C)n(C)c1=O | 3.12
47 | COc1cc(OC)c(C2=NOC(C(=O)Nc3cc(C)nn3-c3ccccc3)C2)cc1Cl (stereo not drawn) | -24.5
48 | CCOC(=O)C1=C(c2ccccc2)NC(SCC(N)=O)=C(C#N)C1c1cccnc1 (stereo not drawn) | -9.62
49 | Cc1ccc(C(=O)CCC(=O)Nc2ccccc2C)cc1C | 15
50 | Cc1ccccc1C(=O)N1CCc2cc(-c3nc(NC(=O)Cc4ccc5c(c4)OCO5)sc3C)ccc21 | 3.97
51 | COc1ccc(CNC(=O)C2CC(C)=C(C)CC2C(=O)O)cc1 (stereo not drawn) | 1.08
52 | CC1CCCC(C)N1C(=O)CN1C(=O)c2ccccc2S1(=O)=O (stereo not drawn) | 3.3
53 | CN(C)CCCNC1=CC(=O)OC12CCCCC2 | -5.19
54 | CC1CN(S(=O)(=O)c2cccc(-c3cn4ccccc4n3)c2)CC(C)O1 (stereo not drawn) | -11
55 | Nc1nc(-c2ccc(F)cc2)cc(C(F)(F)F)n1 | 18.7
56 | O=C(Nc1ccc(NC(=O)c2cccs2)cn1)c1ccccc1 | 11.7
57 | O=C(COC(=O)/C=C/c1ccccc1[N+](=O)[O-])NC1CC1 | 13.1
58 | CNC(=S)Nc1cccc(Cl)c1C | 13.9
59 | Cc1cc2oc(=O)cc(CN(C)Cc3cccc(F)c3)c2cc1Cl | 10.8
60 | O=C(CCN1CCN(c2ccccc2)CC1)Nc1ccc2c(c1)OCO2 | -35.8
61 | O=C(Nc1ccccc1)c1n[nH]c(Cn2cncn2)n1 | -8.58
62 | CCOC(=O)C1=C(C)N(CC)C(=S)NC1c1ccc(Cl)cc1 (stereo not drawn) | -9.13
63 | COc1cc(NC(=O)CSc2nccc(C)n2)c(C(=O)O)cc1OC | -17.5
64 | Cc1[nH]c2ccccc2c1CCN(Cc1cccnc1)C(=S)Nc1ccc(F)cc1 | -33.4
65 | CCOCCCN1C(=O)C(=O)N(CC(=O)N2c3ccccc3NC(=O)CC2C)C1=O (stereo not drawn) | 17.2
66 | Cc1ccc2c(Cl)cc(Cl)c(OCC(=O)Nc3ccc(C)c(S(=O)(=O)N(C)C)c3)c2n1 | -22.3

Row | Structure (SMILES) | hERG current change (%, negative = inhibition) at 10uM [%]
67 | O=C(CCN1C(=O)/C(=C/c2ccc(F)cc2)SC1=S)NC1CCS(=O)(=O)C1 (stereo not drawn) | -6.33
68 | O=C1/C(=C/C=C/c2ccco2)SC(=S)N1c1ccc(O)cc1 | -0.674
69 | Cc1cccc(CS(=O)(=O)Cc2ccc(C(=O)NCCN3CCCCC3C)o2)c1 (stereo not drawn) | -19.4
70 | Cc1scc(C(=O)NNC(=S)NCC2CCCO2)c1C (stereo not drawn) | -16.7
71 | COc1ccc(C(=O)OCc2nnc(-c3ccccc3)o2)cc1S(=O)(=O)N1CCOCC1 | -29.4
72 | CCN(C(=O)COC(=O)c1cc(-c2ccc(C)o2)nc2ccccc12)C1CCS(=O)(=O)C1 (stereo not drawn) | -66.7
73 | NS(=O)(=O)c1cccc(NC(=O)CSc2nc3ccc(Cl)cc3[nH]2)c1 | -2.83
74 | C=CCNC(=S)Nc1cccc(NC(=S)NCC=C)c1 | 1.6
75 | CCC(C)Sc1ccc([C@@H]2[C@H]3C(=O)N(CC)C(=O)[C@H]3[C@]3(C(=O)OC)CCCCN23)cc1.O=C(O)C(F)(F)F (stereo partly drawn) | 14.1
76 | COc1ccc(CNc2ncnc3cc(OC)c(OC)cc23)cc1 | -3.69
77 | CCOc1ccc(N(CC(=O)NCCc2ccc(C)cc2)S(=O)(=O)c2c(C)noc2C)cc1 | 19.5
78 | Cc1ccc(-n2[nH]c(C)c(/C=N/c3cccc(C)n3)c2=O)cc1 | 2.26
79 | CN(C)CCCN1C(=O)c2cccc3cccc(c23)C1=O | -16
80 | COc1ccc(C(=O)NC(=S)NC2CCCCC2)cc1 | -0.0729
81 | CCCC1(CCC)NC(=O)N(CC(=O)Nc2cccc(OC)c2)C1=O | 3.28
82 | CNc1nc2c(c(=O)n(C)c(=O)n2C)n1Cc1ccccc1 | 0.607
83 | Cc1cccc(C)c1OCCn1nc(C(=O)O)c2ccccc2c1=O | 9.53
84 | Cc1cc(C)n2nc(C(=O)N/N=C/C=C/c3ccccc3)nc2n1 | -45.1
85 | C=CCCCCc1nc2ccccc2c(=O)n1N | 6.28
86 | O=c1oc(Nc2cccc(Cl)c2)nc2ccccc12 | 21.4
87 | COc1ccccc1OCCNC(=O)c1ccc(S(=O)(=O)N(C)C)cc1 | -1.21
